Results on 167 variants are retold here after the RNAGym collection of RNA variant scans (doi:10.7554/elife.90254).

The source gives no read counts; variants with many changes may rest on few reads.

B1: OR4K15 (parent)
chain: GUUAACGGUCAUAGGCCAUGGAAACUAGGAGCACCAUUUCGCUGCCAGUGAAGAAAUGAACAAAGAAAAUCUGGGCCAGGCAGGCAUCAAAAGAAAUAGUCUUGCGCUCAACCAGAAAGUCUGUAAUCAUUUUAAGGGUA

The variants in this data set derive from B1. The data set can be described thus: self-cleavage, relative activity (ratio to wild type); higher = more cleavage; in vitro, sequencing; the parent is a self-cleaving ribozyme.
For the variant A66G A68G A111U A134G, the self-cleavage was 0.11.

For A64G A69G U133A, the self-cleavage was 1.42.

Consider U70A U122A A134U, for which the self-cleavage is 1.16. As for A64G A114U U120G, the figure is 0.12. As for A66G A96G U97A, the figure is 1.99.

Take A63U U108C A111G: the self-cleavage was 0. Regarding A68U A82U A95C A110G, the self-cleavage amounted to 0.05. Consider A67G A82G U108C, for which the self-cleavage was found to be 0.05. In the case of A66G A96G A117G A118G, the self-cleavage stood at 1.45. For the variant A67G U108C A140U, the self-cleavage is 0.02. The result for A67G U72C A129G reads 0.07; that for A63G A67G U139C, 1.71; that for A69G U70C A96G A129G, 0.09. The result for A69C C121U A126G reads 1.29; that for A64G A66G A90U U100C A116G, 1.94. As to U70A A82G A89G U100A, the self-cleavage is 0.05. The result for A66G A91G U133C reads 1.38. With A63G A86G C101A U139C, the self-cleavage stood at 0.04. As for A68G A110G U127C, the figure is 0.03; as for A68G A114G A126G, 0.37. With A68U U72C U102A, the self-cleavage worked out at 0.16. The result for A63G A67G U70C U108C U132C reads 0.02; that for A69U U97C U139G, 1.63. The result for A63C A64C U122C reads 1.75; that for U70A U100C A110G, 0.26. The result for A63G G83A A94G reads 1.55; that for A66G U70C U72C A98G C128A, 0.04; that for A68G G83A U102A, 0.21. In the case of A68G U70C U87C, the self-cleavage was found to be 0.39.

A66G A98G U124C: the self-cleavage came to 0.31. As for A67G U102C A111G, the figure is 0.01; as for A64U A67G G75C A94G, 0.09; as for A67G U72C A94G, 0.33. The result for A66G A82G U122C reads 0.64. Turning to A68G U87A U102C, the self-cleavage is 1.61. The result for A64U A67G A82G A86G U130C reads 0.09; that for A69U A96U U124C, 2.04. Regarding A63U U102A U130C, the self-cleavage worked out at 0.48. Take A63G A78G A116G: the self-cleavage amounted to 0.09.

As for A68G U127C U130C, the self-cleavage amounted to 0.66. As for A64G U70A A86G A118G, the self-cleavage is 0.23. As for A67G A69G U87C, the figure is 1.27; as for A68G U100C A126U U139A, 2.45. With A66G A94G U103C, the self-cleavage was determined as 1.26.

As for A66U A78C A92U U122C, the self-cleavage stood at 0.18. The result for A68G A92G U100A A117G reads 0.6. For the variant A67G U100A A110G, the self-cleavage amounted to 0.03. As for A66C A67C U120A U122C U132C, the figure is 0.62; as for A68G U70C A94G, 0.62. On to A63G G75A U87A, for which the self-cleavage was 0.04. A68G A78G A95G: the self-cleavage turned out to be 0.4. For the variant G65A A86G U130C, the self-cleavage worked out at 1.06.

A67G A82U A94U: the self-cleavage came out at 0.18. With A63G A96G C105U A110G, the self-cleavage was 0.1. For A67G G106A U108C A118G, the self-cleavage stood at 0.02. As to A64G G123U U131C, the self-cleavage is 2.69. As for A69U U87C A92G, the self-cleavage was determined as 1.6. As for A63U G106A U131A, the figure is 0.01; as for A68G G99A A117G, 0.58. The result for A67G U103C A135G reads 1.5; that for A67G U103C A135U, 1.03; that for A67G A69G A92U U120C U122C, 0.54. The result for A67G A114G A135U reads 0.36; that for A66G A69G U122C G137A, 1.07. A66G A68G A69U: the self-cleavage amounted to 1.54.

A66U A96U U100G U124C: the self-cleavage was 1.14.

On to A64G A91G U103A U122C, for which the self-cleavage came out at 0.86. For A63G A90G A95G A117G, the self-cleavage was found to be 2.88. As for G65U A91G A126G, the figure is 0.32; as for A67G U72A A82U U108C, 0.01. U70A G99A U103C: the self-cleavage worked out at 0.05.

Consider A64G U87C U103A A116G A126G, for which the self-cleavage was determined as 0.15. Regarding A68G A125G A126C, the self-cleavage worked out at 0.41. As to A68G A96G A116G, the self-cleavage stood at 0.95. The result for A68G U122C A129G reads 0.79. For the variant A68U U87C A89G U102C, the self-cleavage was found to be 2.65.

Take U70C A78G A82G U122C: the self-cleavage turned out to be 0.14. As for A69G G75C A111G G123A, the figure is 0.11. Turning to A63G A68G A82G U103C C107A, the self-cleavage was 0.01. As for A67G A92G U100C, the figure is 2.55; as for A69G U70C A90G U108C A116U A118G U131C, 0. For the variant A64U A82G U120A A126G U130G, the self-cleavage stood at 0.13. As for A68G A86U A89G, the figure is 1; as for A67G C109A A129G, 0.14; as for U70A A91G U132C A135U, 0.82. Regarding A66U A67U A96G, the self-cleavage was 1.78. As for A68G A89G G137A, the self-cleavage was determined as 0.64. The result for A69G A135U U139C reads 0.79; that for A68G A91G A117G, 1.47.

With A67G A96G A116G, the self-cleavage came to 0.18. As for A66U A78C U127G, the figure is 0.17; as for A66G U72C A111G, 0; as for A68G A78G A111G, 0.03. Turning to A69G A110G U122C, the self-cleavage is 0.08. With A67G A114U U131C, the self-cleavage was determined as 0.02. For the variant A69G C105U A126G, the self-cleavage was 0.06.

As to A68G U87C U127A U131C, the self-cleavage came out at 0.85. For the variant A68G A96G A117G, the self-cleavage worked out at 2.71. A64G A92G A94G U100C: the self-cleavage was found to be 1.3. The result for A68G U87C A92G reads 1.8; that for A63G A67G U132A, 1.56; that for A66G A67G C71A, 0.32. As for A62U U72C A82G, the figure is 0.14; as for A67G U100C A111G G136A, 0.02; as for A67G G104A A117G A134G, 0.01. Turning to A67G A78G A94G, the self-cleavage amounted to 0.04.

Regarding A69G C101A U120C, the self-cleavage stood at 0.05.

Turning to A63U A67U C105U U120C U132C, the self-cleavage amounted to 0.04. The result for A69G U102C U122C reads 0.85. The result for A62U G79A A117G reads 0.15; that for A69G G75C U122C, 0.07; that for A66G A86G A89U, 2.28. Take A63G A64C A126G: the self-cleavage amounted to 1.04. The result for A64G A91U A126G reads 1.52. Regarding A67G U102C A140G, the self-cleavage came to 1.8. For A66U A92G A117G U120A, the self-cleavage came out at 1.97.

As to A67G U103C A111G, the self-cleavage amounted to 0. For A63G U72C U100C U103G U122A, the self-cleavage was 0.01.

Consider A69G U97A U133C, for which the self-cleavage stood at 0.97. Regarding A66U A68G A86G, the self-cleavage was 1.27. Consider A67C U130C U131C, for which the self-cleavage was 1.72.

A66G A94G A98G U102C U108C: the self-cleavage worked out at 0.01.

On to A66G A95G U130C, for which the self-cleavage was determined as 2.09.

On to A67G U72A G83A A95G U120G U132C, for which the self-cleavage was found to be 0.28. With A63G U72C A82C A92G C112U, the self-cleavage was 0.03.

As for A67G A92G U131C A134U, the self-cleavage is 1.3. With A67G A78U A86U A95U, the self-cleavage was found to be 0.16.

A62U A126G U127C: the self-cleavage is 0.61. As to G65A U120C U124C, the self-cleavage is 0.2.

As for A64G U120A U122C, the self-cleavage was found to be 1.53. For A68G A95G A110U, the self-cleavage worked out at 2.01. On to A63G G93A U100C A118G, for which the self-cleavage was found to be 1.59. For the variant A66G U103A A140U, the self-cleavage was determined as 0.23.

Turning to A64G A68G A78G U102C A111U, the self-cleavage came to 0.02. Turning to A68G G73A U130C, the self-cleavage amounted to 0.22. Take A63G A67G A140U: the self-cleavage was determined as 1.41. The result for A67G A82C A95G reads 0.19.

Consider A68G A82C A117G U120C, for which the self-cleavage worked out at 0.04. The result for A67G U72A A86G U139C reads 0.27; that for A62U U122C A135G, 1.2. As for A69G U103C A114G, the figure is 0.16. The result for A69G U103C U108C reads 0.02; that for A68G A92G U100A, 1.18.

In the case of A64G A68G A98G U100C A129U, the self-cleavage worked out at 1.99. Regarding A66G U72A G123A, the self-cleavage turned out to be 0.39. Regarding A64G C112U A134G, the self-cleavage worked out at 0.01. As for A63G A67U U103C, the figure is 0.38; as for A68G G75C A116G, 0.01; as for A64G A95G A111G, 0.03. As for A66G U70A A92G U124C, the figure is 0.35; as for A63G A89U U100A, 2.48. As for A63G A68G A82G U87C U131C, the figure is 0.2; as for A67G A68G C81U, 0.2; as for A63G U70C A98U, 1.37. Take A63G C76U A95G: the self-cleavage is 0.03. A63C A78G C112U: the self-cleavage was 0.02. The result for A64G A90G A92G A116G reads 0.34; that for A66U A96G A110G U122A, 0.16. The result for A63G U103C A114C reads 0.05; that for A67G A110G U127C, 0.09; that for A69G A86U U87G, 1.72.

Regarding A69G A114G U122C U130C, the self-cleavage worked out at 0.03. On to A63U A64G C88G U127C, for which the self-cleavage amounted to 0.84. As for A64G C105G A116U, the self-cleavage turned out to be 0.

For A69G A96C U103C, the self-cleavage was 0.11.

As for U70A A86G C112U A126G, the self-cleavage came to 0.01. The result for A64U U100C A114U reads 0.12.
